Results published in US7285566B2, “Resistance-repellent retroviral protease inhibitors” (priority 2002, dated 2007).

Biological target: wild type and V82F/I84V mutant HIV protease
Assay: HIV protease inhibition, Ki for wild type and mutant enzymes
Conditions: V82F and I84V mutations vs wild type
Excerpt: Data from the present example are described in detail in Yoshimura et al., J. Virol., 76, 1349-1358 (2002).

SMILES | Ki values for wild type and mutant enzymes, effect of active site mutations
COc1ccc(S(=O)(=O)N(CC(C)C)C[C@@H](O)[C@H](Cc2ccccc2)NC(=O)O[C@H]2CO[C@H]3OCC[C@H]32)cc1 [Compound 1] | similar
CC(C)CN(C[C@@H](O)[C@H](Cc1ccccc1)NC(=O)O[C@H]1CCOC1)S(=O)(=O)c1ccc(N)cc1 [Compound 2, Amprenavir] | dramatically affected
